# Results reported in PMC4336329 (PLoS ONE, 2015).
# The campaign covered roughly 310,000 compounds. About 2,200 (0.71%) showed an effect of 50% or more. Effects have a minus sign here. This is one part of the list.
# Molecular target: human ether-à-go-go-related gene (hERG) potassium channel (human, UniProt Q12809)
# Assay: primary screen, population patch clamp on CHO cells stably expressing hERG
# Chain of human ether-à-go-go-related gene (hERG) potassium channel (Q12809 whole entry, looked up): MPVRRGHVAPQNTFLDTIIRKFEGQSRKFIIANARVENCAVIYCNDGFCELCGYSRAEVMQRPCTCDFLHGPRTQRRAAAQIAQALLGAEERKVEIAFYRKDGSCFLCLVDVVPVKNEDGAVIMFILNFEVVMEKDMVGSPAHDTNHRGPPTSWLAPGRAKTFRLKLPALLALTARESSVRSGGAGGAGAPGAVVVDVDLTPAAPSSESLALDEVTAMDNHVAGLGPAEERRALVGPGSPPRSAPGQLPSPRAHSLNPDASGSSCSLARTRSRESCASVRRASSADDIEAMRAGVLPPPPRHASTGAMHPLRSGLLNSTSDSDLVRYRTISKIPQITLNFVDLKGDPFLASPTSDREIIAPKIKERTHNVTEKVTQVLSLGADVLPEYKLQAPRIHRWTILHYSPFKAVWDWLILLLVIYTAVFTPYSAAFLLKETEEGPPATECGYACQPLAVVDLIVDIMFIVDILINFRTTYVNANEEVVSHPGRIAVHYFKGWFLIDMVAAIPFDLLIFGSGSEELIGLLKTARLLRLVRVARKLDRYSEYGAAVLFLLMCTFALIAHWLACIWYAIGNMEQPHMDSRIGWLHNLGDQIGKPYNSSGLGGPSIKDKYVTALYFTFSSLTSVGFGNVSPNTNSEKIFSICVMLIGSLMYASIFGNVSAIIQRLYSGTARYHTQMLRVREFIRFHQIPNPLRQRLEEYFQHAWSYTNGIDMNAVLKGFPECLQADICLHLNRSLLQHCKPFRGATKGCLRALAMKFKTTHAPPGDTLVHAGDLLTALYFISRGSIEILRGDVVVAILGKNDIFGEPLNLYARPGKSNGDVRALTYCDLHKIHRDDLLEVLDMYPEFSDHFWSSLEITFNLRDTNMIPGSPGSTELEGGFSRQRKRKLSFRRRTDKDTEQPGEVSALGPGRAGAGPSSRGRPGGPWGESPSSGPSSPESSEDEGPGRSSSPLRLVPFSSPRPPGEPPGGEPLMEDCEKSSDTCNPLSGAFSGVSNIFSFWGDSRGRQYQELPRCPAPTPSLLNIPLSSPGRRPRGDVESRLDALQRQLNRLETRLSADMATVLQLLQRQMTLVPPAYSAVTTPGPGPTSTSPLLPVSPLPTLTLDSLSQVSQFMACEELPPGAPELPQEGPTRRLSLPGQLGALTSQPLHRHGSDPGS
row,Structure (SMILES),"hERG current change (%, negative = inhibition) at 1uM"
1,Cc1ccc(-c2nnn(CC(=O)NCCc3ccc4c(c3)OCO4)n2)o1,12%
2,Cc1ccccc1NC(=S)NC1CCN(Cc2ccccc2)CC1,3.73%
3,O=C(NCCC(=O)N1CCN(c2ncccn2)CC1)c1ccccc1,13.8%
4,CC(=O)OCCCN1c2ccccc2Nc2nnc(-c3ccccc3)cc21,-5.14%
5,Cc1ccccc1C1NS(=O)(=O)N=C1N (centres unmarked),12.3%
6,N/C(=N\OC(=O)Oc1ccccc1)c1cccc([N+](=O)[O-])c1,7.58%
7,Cc1ccsc1/C=C1/C(=O)NN(c2ccccc2)C1=O,2.94%
8,COc1ccccc1NC(=O)CNC(=O)c1ccccc1C,9.5%
9,Cc1cc(NC(=O)CN2CCOCC2)n(-c2nc3ccccc3s2)n1,16%
10,CCCCCCCCN1[C@@H](CC(=O)OC)c2cc(C(F)(F)F)ccc2S1(=O)=O,14%
11,COc1ccc(NC(=O)c2ccco2)cc1NC(=O)c1ccc(C)cc1,16.5%
12,CC(C)CC(=O)N=C1SC2CS(=O)(=O)CC2N1Cc1ccccc1Cl (centres unmarked),12.8%
13,Cc1ccc(-c2nc(CN3CCN(C(=O)C4CCCO4)CC3)cs2)cc1 (centres unmarked),18.1%
14,Cc1ccc(N=C2CSC(=O)N2)cc1,6.29%
15,CC1CCCCC1NC(=O)CCNS(=O)(=O)c1ccc2c(c1)CCC(=O)N2 (centres unmarked),11.3%
16,O=C(COc1ccccc1)OCC(=O)c1c[nH]c2ccccc12,6.35%
17,COc1ccc(CC(=O)c2ccc(OC)c(OC)c2C)cc1OC,4.93%
18,CCOC(=O)C(=CNc1ccc2c(c1)c1ccccc1n2CC)C(=O)OCC,15.2%
19,Cc1ccccc1-c1nc(CN2CCC(C(=O)NCCCN3CCOCC3)CC2)c(C)o1,5.85%
20,CC12CCC(C(=O)NCCCn3ccnc3)(OC1=O)C2(C)C (centres unmarked),16.8%
21,O=C(c1cn[nH]c1)N1CCc2c([nH]c3ccccc23)C1c1c(F)cccc1Cl (centres unmarked),0.034%
22,COc1ccc(S(=O)(=O)N(CC(=O)NCCCN(C)C)c2ccc(C)cc2)cc1OC,-25.1%
23,COc1ccc(NC(=O)c2cc3c(Cl)nc4ccccc4c3s2)c(OC)c1,2.69%

row,Structure (SMILES),"hERG current change (%, negative = inhibition) at 1uM"
1,O=C(NCc1ccco1)C1CCCN(S(=O)(=O)c2ccccc2)C1 (centres unmarked),10.7%
2,O=C(Oc1ccc(C(=S)N2CCOCC2)cc1Cl)c1ccccc1F,14.1%
3,Cc1ccc(OCCn2cc(C(=O)O)c3ccccc32)cc1,7.32%
4,O=C(CSCc1cc(=O)n2nc(C3CC3)sc2n1)Nc1ccccc1Cl,11%
5,O=C(O)c1ccc(-c2sc(Nc3ccccc3)n[n+]2-c2ccccc2)cc1.[Cl-],6.9%
6,O=C(COc1ccc(C(=O)NCCN2CCOCC2)cc1)Nc1cccc(C(F)(F)F)c1,-4.02%
7,c1ccc(-c2ccc(-c3nc(-c4ccccn4)no3)cc2)cc1,11.4%
8,O=C(O)c1c[nH]c(=S)n1-c1ccc(F)cc1,24.1%
9,CC(C)CNC(=O)CN(C1CCCCC1)S(C)(=O)=O,7.68%
10,COc1ccc(Cl)cc1NC(=O)CN1CCN(S(=O)(=O)N2CCC(C)CC2)CC1,-3.67%
11,O=C(COC(=O)CNS(=O)(=O)c1cccc(Br)c1)NC(=O)Nc1ccc2c(c1)OCCO2,15.8%
12,CC(=O)Nc1ccc(N=Cc2c(O)ccc3ccccc23)cc1,9.71%
13,Cc1c(C(=O)O)sc2ncnc(N3CCCCC3C)c12 (centres unmarked),16.4%
14,CCc1cccc(NC(=O)C2CCCN(S(=O)(=O)c3c(C)[nH]c(=O)[nH]c3=O)C2)c1 (centres unmarked),7.07%
15,COC(=O)C1=C(c2cccc(C#N)c2)C[C@@H]2CC[C@H]1N2C(=O)NC1CCCCC1,20.5%
16,O=C(Nc1ncc(Cl)cn1)c1cccs1,16.6%
17,CC(=O)Nc1ccc(Nc2cc(C)nc3c(-c4ccc(Cl)cc4)c(C)nn23)cc1,7.31%
18,O=C(COC(=O)CCC(=O)c1ccccc1)NCCc1ccccc1,4.19%
19,CCc1nnc(NC(=O)c2ccc(S(=O)(=O)NC3CCCCC3)cc2)s1,14.1%
20,CSc1ccc(NC(=O)Nc2cccn(Cc3ccccc3F)c2=O)cc1,14.2%
21,O=C(CSc1ncccn1)NCc1cccs1,3.46%
22,Cc1cc(/C=C2/NC(=O)NC2=O)c(C)n1-c1ccccn1,-4.25%
23,CC1=Nc2ccccc2N=C(NC(=O)CSC(=S)N2CCCCC2)C1c1ccccc1 (centres unmarked),2.66%

row,Structure (SMILES),"hERG current change (%, negative = inhibition) at 1uM"
1,CC(C)[C@@H]1N[C@]2(C(=O)Nc3ccccc32)[C@@H]2C(=O)N(c3cccc(C(F)(F)F)c3)C(=O)[C@@H]21,-0.552%
2,Nc1cc(N)nc(SCC(=O)Nc2ccc3c(c2)OCCCO3)n1,6.3%
3,Cc1nn(C(=O)CCC(=O)NCc2cccc(F)c2)c2ccccc12,13%
4,C=CCNc1nc(C)c(C(C)=O)cc1C#N,14.9%
5,COc1cc(/C=N/NC(=O)c2cccnc2)ccc1OC(=O)c1ccc2c(c1)OCO2,15%
6,CCOc1ccc(N2CC(C(=O)NCCc3ccc(S(N)(=O)=O)cc3)CC2=O)cc1 (centres unmarked),13.7%
7,O=C(c1cc(-c2ccc(Cl)s2)nc2ccccc12)N1CCOCC1,-0.619%
8,CC(C)Oc1ccc(S(=O)(=O)N(C(C)C)C(C)C)cn1,7.54%
9,N=Cc1c(O)n(-c2cccc(Cl)c2)c(=O)[nH]c1=O,-6.05%
10,CC(C)(C)[C@@H]1C=C(C(=O)N2CCN(Cc3ccc4c(c3)OCO4)CC2)O[C@H](OCc2ccc(CO)cc2)C1,-2.59%
11,CCOC(=O)c1c(C)[nH]c(C2=NNC(=Nc3cccc(Cl)c3)SC2)c1C,12.7%
12,O=C(NCC(c1cccs1)N1CCOCC1)c1ccc(Cl)nc1 (centres unmarked),1.79%
13,CCCS(=O)(=O)N1CCC(Cc2ccc(OC)cc2)(C(=O)OCC)CC1,8.92%
14,COc1ccc(NC(=O)Cn2c(=O)n(-c3ccccc3)c(=O)c3sccc32)c(OC)c1,10.1%
15,O=C(CN1C(=O)C2C3C=CC(C3)C2C1=O)N1CC=C(c2ccccc2)CC1 (centres unmarked),3.53%
16,Cc1cc(C)nc(NCC(O)CNc2ccccc2Cl)n1 (centres unmarked),13%
17,O=C1CCC(C(=O)N2CCCC(Nc3ccc(F)cc3)C2)=NN1 (centres unmarked),5.07%
18,COc1ccc2nc(/C(C#N)=C\c3ccc(Oc4ccc([N+](=O)[O-])cn4)cc3)[nH]c2c1,-11.3%
19,O=C(CSc1ccc(-c2ccccn2)nn1)N1CCCCC1,-5.84%
20,COc1ccc(NC(=O)CSc2nc3ccccc3nc2N2CCCC2)cc1Cl,-8.71%
21,COc1ccc(NC2(c3ccc(Cl)cc3)C(=O)c3ccccc3C2=O)cc1,-1.18%
22,O=C(Nc1ccc2nc3n(c(=O)c2c1)CCCC3)c1cccnc1Cl,14%
23,O=C(O)c1sc2cc(C(F)(F)F)cnc2c1-c1ccccn1,18.6%

row,Structure (SMILES),"hERG current change (%, negative = inhibition) at 1uM"
1,Cc1cc(C)n(-c2cccc(Cl)c2)c(=O)c1C#N,25.1%
2,Br.O=C(O)c1cscn1,11.3%
3,CCOCCCn1c(SCc2nc3ccccc3s2)nc2ccccc2c1=O,10.2%
4,O=C(O)c1ccc(OS(=O)(=O)c2cccc(C(F)(F)F)c2)cc1,8.16%
5,Cc1nc2c(c(=O)[nH]1)C(c1ccc([N+](=O)[O-])cc1)c1c(c3ccccc3oc1=O)O2 (centres unmarked),1.19%
6,Cc1ccc(C(=O)OC(C)C(=O)c2cc(C)c(C)cc2C)o1 (centres unmarked),6.31%
7,COc1ccc(S(=O)(=O)n2cnc3ccccc32)cc1OC,16.4%
8,COc1ccc(C)cc1S(=O)(=O)N1CCN(S(=O)(=O)c2cc(C)ccc2OC)CC1,7.04%
9,COc1ccc(OCC2NCCc3cc(OC)c(OC)cc32)cc1 (centres unmarked),2.34%
10,CCOC(=O)c1sc(=S)n(-c2ccc(C)cc2)c1N,12.2%
11,CCCn1c(N)c(C(=O)CSc2nnc(C3CC3)n2-c2ccccc2)c(=O)[nH]c1=O,0.363%
12,COCCN(C(=O)CSCC(=O)Nc1ccc(C)cc1)c1c(N)n(CC(C)C)c(=O)[nH]c1=O,11.6%
13,O=C1c2[nH]nc(-c3ccccc3O)c2C(c2cccc(Cl)c2)N1Cc1ccco1 (centres unmarked),1.09%
14,CC12CCC(=O)C=C1CCC1C2CCC2(C)C1CCC2(O)C(=O)CO (centres unmarked),8.16%
15,CCn1nc(CCC(=O)O)c2ccccc2c1=O,8.96%
16,O=S(=O)(c1ccccc1)N1N=C(c2cccs2)CC1c1ccc(F)cc1 (centres unmarked),5.6%
17,Cc1cc(C)nc(Oc2ccc([N+](=O)[O-])cc2)n1,21.8%
18,N#C/C(=C(/O)COC(=O)c1ccc2c(c1)OCCO2)c1nc2ccccc2[nH]1,10.4%
19,COc1ccc(S(=O)(=O)NNC(=O)C(=O)NNc2ccccn2)cc1,6.48%
20,Cc1nnc(SCC(=O)NCc2ccc3c(c2)OCO3)s1,17.3%
